The values below come from paper PMC12136788.

The list shows a part of the results.

To fix the notation:
T1: UNK ZnF1-3 (human, UniProt Q9C0B0 31-174)
T1 sequence: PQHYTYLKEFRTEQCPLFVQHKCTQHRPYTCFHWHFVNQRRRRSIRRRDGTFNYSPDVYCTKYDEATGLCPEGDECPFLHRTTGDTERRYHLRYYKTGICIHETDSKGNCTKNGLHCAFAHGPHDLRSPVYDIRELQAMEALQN

B1: chr7:65705475:65705476:+_ENSG00000169902_ENST00000304842|hu_hu|FALSE|FALSE (ssRNA)
RNA: GGGAGUUCUACAGUCCGACGAUCUCUAUCCGGUGAUGGCAUUCCAUGGCAUGCUGGCCCAGGUAAAACACAGUCACAGAACUAAUCACCAGACAUGCCAAUAGUAAGUUCUGCUUCAGCUUUCCAACCAUCUUGAUGUGGUUACAACAGAGGAUUGAGCAUCA
B2: chr7:141438946:141438947:+_ENSG00000106028_ENST00000265304|hu_mus|hu_hu_hu_mus_True|1_58 (ssRNA)
RNA: GGGAGUUCUACAGUCCGACGAUCGACGAAAUACCUGUAACACAGGUCUUCGAAACAUGGCUUCUGUUUUUCUUACAGUCUAAUCUUUAGGCUUUUCCUAAAGGAAAGAAAGAAAAGAGAAAAAUGAUAAAUCAAGAACUUCCGCAACAGAGGAUUGAGCAUCA
B3: chr1:39494564:39494565:+_ENSG00000168653_ENST00000372967|hu_hu|hu_hu_hu_mus_True|28_88 (ssRNA)
RNA: GGGAGUUCUACAGUCCGACGAUCAUGCAUUCGCCUCAUCGUUUUGUGCCGAAGCAAGCACUCUUCGAAGUCAUCGAACUCUAUCUUGCACUCCUUUUUCGCCCGGGUAUAACCGAUCCCGUGUGCACACUCUAUCCACUCUUUCAACAGAGGAUUGAGCAUCA
B4: 76112177_76112297_1045_CDS_ENSG00000091073_ENST00000430490|human|control|control (ssRNA)
RNA: GGGAGUUCUACAGUCCGACGAUCGUACGGUGCAAAGGCCUGGUGGGUCCCAAACACAGAAGCGGUCCUGUGUGGGGGGUGCUGGGGGACGGGGUAUGCAGGGAGGUUGGUCAUGGAGUGGCGGUAGCGGCCUGACACGGGGCCCAACAGAGGAUUGAGCAUCA
B5: chr5:130458811:130458812:+_ENSMUSG00000066735_ENSMUST00000051758|mus_mus|FALSE|FALSE (ssRNA)
RNA: GGGAGUUCUACAGUCCGACGAUCUACUUUCUUCACUAUGUAUCAGUCACGAUGAGCUGACAAUUCCUUUCUACACUUCAACUAAACUGUACAGUAAGUUCUGCAGGGGUGGAUCCCAAUGUUUCUACCUUUAUUUACAAAUAUCAACAGAGGAUUGAGCAUCA
B6: chr16:32019706:32019707:-_ENSMUSG00000022781_ENSMUST00000023467|mus_hu|FALSE|FALSE (ssRNA)
RNA: GGGAGUUCUACAGUCCGACGAUCCUUCAGGUCAAGUUCUGAACUAAAAUAUUACAUGUAACAACAGCUGGUCCUAACUUUUAUACAAAGUGAAACUAUAUAGAGCUCCUUUGCCAACAUAAGGAGCUACAUAAUUUCUAUUACCAACAGAGGAUUGAGCAUCA
B7: chr11:18503389:18503390:-_ENSG00000074319_ENST00000251968|hu_mus|FALSE|FALSE (ssRNA)
RNA: GGGAGUUCUACAGUCCGACGAUCAUUUUCCAUUUUCUCCAGAGCAGAACUUAGUUCUUCAUCCUUCUUUUUCAAAAGUUCUAUGUUUUUAUCAACUUCAGCUACUUCUUGAUCUAAGCGGGUGACCAUCUCUUCCAGUUUCUGCAACAGAGGAUUGAGCAUCA
B8: 111852333_111852587_630_CDS_ENSMUSG00000018707_ENSMUST00000018851|mouse|control|control (ssRNA)
RNA: GGGAGUUCUACAGUCCGACGAUCUGAAGGAGCCAUCUUAUCACCAUCCCUGUCUGCUUUGCCAGACUCUCUGAUGUAGGACUUAAAGAAAGGAGCCACUGCAUUGCUGAUGAAAGAGUGCAGUGUCUCAUACGGCGAGUCUUCCAACAGAGGAUUGAGCAUCA
B9: chr3:148802587:148802588:-_ENSG00000071794_ENST00000310053|hu_mus|hu_hu_hu_mus_False|8_28 (ssRNA)
RNA: GGGAGUUCUACAGUCCGACGAUCUCCAACAACUUGUCCUCUCAUAGUUCCAAAUAAAACCAAAUCUUGCUCUUCAUCACUCGUUAGGAAGUCAUCUGGAGGAAUAACAUCUUGGAAUUCAAAAUGUGGAAAGAAAGUUGAGUACAACAGAGGAUUGAGCAUCA
B10: 121248624_121341702_532_3pUTR_ENSG00000157837_ENST00000353487|human|control|control (ssRNA)
RNA: GGGAGUUCUACAGUCCGACGAUCAGACUAUAAGAAGAAUGGAAAUCAGAAAUGUAGACACUUGACUGGAAUCCACCAGGGAAUAGGCCCACGAGUAGGUCUGCUCCGCCAUGGCGCUGCCUCUCGUGGGCUCCGCUGCAGGCUCAACAGAGGAUUGAGCAUCA
B11: chr3:108421708:108421709:+_ENSMUSG00000040389_ENSMUST00000051145|mus_mus|motif|central (ssRNA)
RNA: GGGAGUUCUACAGUCCGACGAUCGCCAAGAAGGACUUCACUUUCUGUAAUUUCUUCACCAGUUGCUUUACUCUGACAAAAUUCGGCGCAGCAUUCAUAAAGUAGGCCCUUCAUUACGAGCUGGAAUAAGCGAUUGUUACUUGCCAACAGAGGAUUGAGCAUCA
B12: chr16:57198444:57198445:-_ENSMUSG00000022749_ENSMUST00000023431|mus_hu|motif|central (ssRNA)
RNA: GGGAGUUCUACAGUCCGACGAUCCCUAAAAGAAGCCGGUGUUUUGCUGCAAUAAUACUGAGCCAGAGAGAAAAGGUCUUCGGUAUCUUCUAUAUUCAGACUGGAUGGAGUAUUUUCCAAGAACUUGAUAACUUCUUCUUUGCUCAACAGAGGAUUGAGCAUCA
B13: chr16:94664741:94664742:+_ENSMUSG00000040785_ENSMUST00000117648|mus_hu|mus_mus_mus_hu_False|8_78 (ssRNA)
RNA: GGGAGUUCUACAGUCCGACGAUCUGGUACUGAUCUUGGUAGCUGAUAUUCAGGAGAAAUGUUGGCCAAGGGUGUAUAUAUGCUGGUGUACUGGGGCAAACCUGGUAACACGUUUAUGUAUGCUGGCCGCUGGGUGAUGAUAUCCAACAGAGGAUUGAGCAUCA
B14: chr15:3987131:3987132:+_ENSMUSG00000022186_ENSMUST00000110690|mus_mus|FALSE|FALSE (ssRNA)
RNA: GGGAGUUCUACAGUCCGACGAUCCCCUGCAUUGUUGCUGACUGCAGUUAGAUCUUUUACUCCAGUCUUCAGUAAAGCUCCUAUAAGAUUCUCUGGAAUACCACACAGCCCAAAACCACCAACCAGCAAGGUUGCACCAUUAGGCAACAGAGGAUUGAGCAUCA
B15: 74801827_74806942_828_CDS_ENSG00000113163_ENST00000380494|human|control|control (ssRNA)
RNA: GGGAGUUCUACAGUCCGACGAUCACAGAUGGAUCCUCUGCAGCCAUACUCUGUUUCAUCUUCAGAUUUGUAGUAACUCAGAGCAUUAUUUUUCAAAACUACCCAACGAUCCUGCCACCCAUGAAUGUAGUUUGUCCACUUACUCAACAGAGGAUUGAGCAUCA
B16: chr19:16212804:16212805:+_ENSG00000167460_ENST00000300933|hu_mus|hu_hu_hu_mus_False|48_68 (ssRNA)
RNA: GGGAGUUCUACAGUCCGACGAUCAACAAUUCUGGAGUGAAGGAAAGAUGUAACAUGGAACAGCAUUCCAUCUAUUACAGAAGGCACGUGGGUAAUUAUGAUCACCCCAGCAUUCUCGCUUGGAAUGCUUAAAGACAAUCUGUUCAACAGAGGAUUGAGCAUCA
B17: chr1:168318718:168318719:+_ENSMUSG00000026563_ENSMUST00000027846|mus_mus|FALSE|FALSE (ssRNA)
RNA: GGGAGUUCUACAGUCCGACGAUCCUGGGGCUCCUUUGCCACGAACUGCUGAGCUCCAGAGAGGGGGUUCUGAGGCUGGAACCUAUGAUCAAAUUUUUGACGAACAGAAGAAAGCUUUUUCUUGCCCUUGGGUUUUCCAGGCUUCAACAGAGGAUUGAGCAUCA
B18: chrX:140365796:140365797:-_ENSMUSG00000031285_ENSMUST00000033642|mus_mus|mus_mus_mus_hu_False|98_98 (ssRNA)
RNA: GGGAGUUCUACAGUCCGACGAUCCUUCUCAUUACUCAAUGCCUGCAAGGUUCUGGUUCGGUAGAAGCUACAGUGGGCGCUGUGAGUGGGGCUAGGCAACCCAUUCAUCCGGGAGCCUCGCAUGUUCCUGGAUGUCUUAUCUCUCAACAGAGGAUUGAGCAUCA
B19: chr13:24895032:24895033:+_ENSMUSG00000019132_ENSMUST00000019276|mus_hu|FALSE|FALSE (ssRNA)
RNA: GGGAGUUCUACAGUCCGACGAUCAUAUUAGCAGACUGUCAUAUUACAGGGUCAAGAAACAAAAGCUGCUGUCCAGUCAUGUUUGGACAAUAACGUUUGGGGUCAGACGGGAAAAAGGGAGGAAAGAAAGGAAAGAAAGAGGAGCAACAGAGGAUUGAGCAUCA
B20: chr14:76904430:76904431:+_ENSMUSG00000022010_ENSMUST00000022587|mus_mus|mus_mus_mus_hu_True|28_48 (ssRNA)
RNA: GGGAGUUCUACAGUCCGACGAUCUGCAGCCAAAAACACCCUCGUGGAAAAAAAGAGGGAACACCAGCAGCCUUGUAUAAGCUAGAUAAAACCGCCUGGCUUUCCGCAGCUCAGGGCGAAACAGAAAACGGCAGCCCUAAUUUACAACAGAGGAUUGAGCAUCA
B21: chr2:18084439:18084440:+_ENSMUSG00000026743_ENSMUST00000114669|mus_mus|motif|central (ssRNA)
RNA: GGGAGUUCUACAGUCCGACGAUCUGAGCAGCGUAGGAGAUUUCUGAAGACUAGAGCUUGUUACACUUCCUGCAGCUGAUGCGGCGGACGAUGUUGGUGAAGCAGAAGAAACUGAGAGGUGAGAAACAUUUUCUUGAUUUUUGUCAACAGAGGAUUGAGCAUCA
B22: chr10:127876205:127876206:+_ENSMUSG00000025373_ENSMUST00000096386|mus_hu|FALSE|FALSE (ssRNA)
RNA: GGGAGUUCUACAGUCCGACGAUCUCUAUGGAACAAUUAUGGCCUGUGCCACAAGAGGCAGUGCCAACCAUAUUUUAGCAAAAGCUAGGAGUAGCUUCUUGCUAAACACAUCAACCCCCAACAGAUUAACCCCUACCCUAAACCCAACAGAGGAUUGAGCAUCA

This experiment concerns the target T1, UNK ZnF1-3. Nature of the experiment: nsRBNS (natural sequence RNA bind-n-seq); RBNS binding buffer (assumed for nsRBNS): 25 mM Tris pH 7.5, 150 mM KCl, 3 mM MgCl2, 0.01% Triton X-100, 500 ug/ml BSA, 20 U/ml SUPERase-In, 4 C; UNK is unkempt and MSI1 is Musashi-1; names of the RNAs are library labels; protein concentration not given here; high values mean tight binding.
With B1, the binding signal stood at 0.347 enrichment R.

B2 showed a binding signal of 0.696 enrichment R.

B3 had a binding signal of 0.701 enrichment R.

As to B4, the binding signal came out at 1.52 enrichment R.

Molecule B5 returned a binding signal of 0.941 enrichment R.

As for B6, the binding signal is 0.871 enrichment R.

In turn, B7 registered a binding signal of 0.439 enrichment R.

On to B8, for which the binding signal is 0.59 enrichment R.

Molecule B9 gave a binding signal of 1.55 enrichment R.

For the molecule B10, the binding signal stood at 1.19 enrichment R.

Molecule B11 came in with a binding signal of 0.858 enrichment R.

For the molecule B12, the binding signal stood at 1.18 enrichment R.

B13 had a binding signal of 0.854 enrichment R.

As for B14, the binding signal was 0.988 enrichment R.

As for B15, the binding signal came to 1.32 enrichment R.

As to B16, the binding signal stood at 0.721 enrichment R.

Consider B17, for which the binding signal stood at 1.34 enrichment R.

As to B18, the binding signal stood at 0.768 enrichment R.

Regarding B19, the binding signal was found to be 1.77 enrichment R.

Consider B20, for which the binding signal amounted to 1.62 enrichment R.

B21: the binding signal was found to be 1.31 enrichment R.

As for B22, the binding signal is 1.1 enrichment R.
